Experimental findings from PubChem BioAssay AID1224863 (Southern Research Institute, 2016) are described below.

Experiment [1] can be described thus: compounds raising F508del-CFTR protein level – cell-based, HeLa F508del-CFTR, immunofluorescence, viability, primary screen (AID 1224863).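 On fold increase: total CFTR protein by anti-CFTR immunofluorescence in fixed cells.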 The following applies: immunofluorescence total CFTR, 24 h, stronger effect = higher value; min viability: measured here: HeLa viability, alamarBlue, dose 50, library dosed in µM unless noted; viability: measured here: primary viability 25 uM, at 25 µM, library dosed in µM unless noted.

The target of experiment [2] is Cystic fibrosis transmembrane conductance regulator (Homo sapiens) (UniProt P13569). Described as above. The following applies: immunofluorescence total CFTR, 24 h, stronger effect = higher value; measured here: primary screen single dose 25 uM, at 25 µM, library dosed in µM unless noted.
UniProt P13569, sequence (P13569 whole entry, looked up): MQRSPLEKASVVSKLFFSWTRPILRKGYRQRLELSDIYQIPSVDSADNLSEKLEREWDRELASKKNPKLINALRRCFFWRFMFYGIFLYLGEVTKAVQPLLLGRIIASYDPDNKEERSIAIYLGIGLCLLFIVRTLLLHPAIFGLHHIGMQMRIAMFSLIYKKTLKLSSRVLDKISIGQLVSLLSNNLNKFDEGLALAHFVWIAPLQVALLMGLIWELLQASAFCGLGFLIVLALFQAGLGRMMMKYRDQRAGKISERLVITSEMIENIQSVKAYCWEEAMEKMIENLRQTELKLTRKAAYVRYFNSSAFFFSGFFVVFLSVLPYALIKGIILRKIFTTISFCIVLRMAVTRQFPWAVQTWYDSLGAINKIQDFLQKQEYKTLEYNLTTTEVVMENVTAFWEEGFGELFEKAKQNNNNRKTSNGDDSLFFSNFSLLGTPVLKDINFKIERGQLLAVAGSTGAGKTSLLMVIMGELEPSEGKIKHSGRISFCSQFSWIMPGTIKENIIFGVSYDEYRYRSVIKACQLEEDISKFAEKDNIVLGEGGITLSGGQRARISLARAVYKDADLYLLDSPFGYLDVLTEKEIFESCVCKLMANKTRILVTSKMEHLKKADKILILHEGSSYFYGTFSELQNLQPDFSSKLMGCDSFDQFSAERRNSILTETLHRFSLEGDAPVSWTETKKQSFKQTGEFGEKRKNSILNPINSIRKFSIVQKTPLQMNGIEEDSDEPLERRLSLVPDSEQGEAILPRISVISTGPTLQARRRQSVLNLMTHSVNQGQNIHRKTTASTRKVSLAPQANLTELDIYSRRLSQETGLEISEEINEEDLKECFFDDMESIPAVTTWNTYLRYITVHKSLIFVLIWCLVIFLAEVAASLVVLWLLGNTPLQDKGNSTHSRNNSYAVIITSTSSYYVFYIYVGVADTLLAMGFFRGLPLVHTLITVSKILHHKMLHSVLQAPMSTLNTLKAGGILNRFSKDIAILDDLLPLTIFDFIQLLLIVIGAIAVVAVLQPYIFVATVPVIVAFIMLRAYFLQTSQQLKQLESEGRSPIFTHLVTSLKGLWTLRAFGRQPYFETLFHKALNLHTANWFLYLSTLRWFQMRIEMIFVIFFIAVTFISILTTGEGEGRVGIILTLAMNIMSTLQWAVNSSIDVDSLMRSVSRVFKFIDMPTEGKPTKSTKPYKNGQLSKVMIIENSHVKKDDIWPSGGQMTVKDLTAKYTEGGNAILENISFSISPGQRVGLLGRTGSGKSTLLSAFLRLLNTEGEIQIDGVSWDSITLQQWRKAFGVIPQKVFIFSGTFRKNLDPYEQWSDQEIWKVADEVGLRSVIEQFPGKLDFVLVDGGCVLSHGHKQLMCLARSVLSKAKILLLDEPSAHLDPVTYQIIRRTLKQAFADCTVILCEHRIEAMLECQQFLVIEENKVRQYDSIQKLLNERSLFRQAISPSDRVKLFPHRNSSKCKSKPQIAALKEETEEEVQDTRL

Values joined by “and” are separate entries in the source; they are usually repeats but may differ in a detail not shown here. Identical values can stand only once. The list shows a part of the results. These are further read-outs of the screen, such as a control signal, another cell line or another target. No call is given for them.

For orientation: viability means a read-out of living cells in per cent, often relative to untreated cells. In the case of `Cc1ccc(/C=C/C(=O)NC2CC2)o1`, in experiment [1], the min viability was 86.1% [measured here: HeLa viability, alamarBlue, dose 5, library dosed in µg/mL] and the viability was 85% [measured here: primary viability 10 ug/mL, library dosed in µg/mL]. Besides, in experiment [2], the fold increase is 2.57 [measured here: primary screen 10 ug/mL, library dosed in µg/mL].
As for `CSc1ncc(Cl)c(C(=O)NCCNc2ncc(Cl)cc2Cl)n1`, in experiment [1], the min viability was 93.8% [measured here: HeLa viability, alamarBlue, dose 5, library dosed in µg/mL] and the viability is 60% [measured here: primary viability 10 ug/mL, library dosed in µg/mL]. In experiment [2], the fold increase was 1.06 [measured here: primary screen 10 ug/mL, library dosed in µg/mL].
For `Cc1cc(C)c(S(=O)(=O)N2CCc3sccc3C2)c(C)c1`, in experiment [1], the min viability was 63.5% [measured here: HeLa viability, alamarBlue, dose 2.5, library dosed in µg/mL] and the viability was 52% [measured here: primary viability 10 ug/mL, library dosed in µg/mL]. Moreover, the fold increase in experiment [2] is 0.95 [measured here: primary screen 10 ug/mL, library dosed in µg/mL].
Consider `C[n+]1c2cc(N)ccc2cc2ccc(N)cc21`, for which, in experiment [1], the min viability turned out to be 65.5% and the viability is 74%. Also, the fold increase in experiment [2] turned out to be 10.
On to `COc1ccc(-c2noc(CSc3nnc(N)s3)n2)c(OC)c1`, for which, in experiment [1], the min viability is 51.3% [measured here: HeLa viability, alamarBlue, dose 20, library dosed in µg/mL] and the viability was 59% [measured here: primary viability 10 ug/mL, library dosed in µg/mL]. For the same molecule, the fold increase in experiment [2] is 1.03 [measured here: primary screen 10 ug/mL, library dosed in µg/mL].
For the molecule `O=C(c1ccccc1)C1C(=O)c2ccccc2C1=O`, in experiment [1], the min viability is 71.7% [measured here: HeLa viability, alamarBlue, dose 0.63, library dosed in µg/mL] and the viability was 101% [measured here: primary viability 10 ug/mL, library dosed in µg/mL]. Also, the fold increase in experiment [2] was 1.5 [measured here: primary screen 10 ug/mL, library dosed in µg/mL].
Turning to `Cc1ccc(C)c(S(=O)(=O)C2(C(=O)OCc3cn4ccccc4c3C#N)CCCC2)c1`, in experiment [1], the min viability is 58.7% [measured here: HeLa viability, alamarBlue, dose 20, library dosed in µg/mL] and the viability is 72% [measured here: primary viability 10 ug/mL, library dosed in µg/mL]. For the same molecule, the fold increase in experiment [2] was 2.23 [measured here: primary screen 10 ug/mL, library dosed in µg/mL].
As to `CCC(C)[C@H]1O[C@]2(C=C[C@@H]1C)C[C@@H]1C[C@@H](C/C=C(\C)[C@@H](OC3C[C@H](OC)C(O[C@H]4C[C@H](OC)[C@@H](NC(C)=O)[C@H](C)O4)[C@H](C)O3)[C@@H](C)/C=C/C=C3\CO[C@@H]4[C@H](O)C(C)=C[C@@H](C(=O)O1)[C@]34O)O2` (some centres undefined), in experiment [1], the min viability was 62.8% and the viability amounted to 60%. In experiment [2], the fold increase amounted to 1.62.
Turning to `CCN(CC)CCNC(=O)c1c(C)[nH]c(/C=C2\C(=O)Nc3ccc(F)cc32)c1C`, the viability in experiment [1] worked out at 67%. Further, the fold increase in experiment [2] was 1.27.
Turning to `O=c1[nH]c(=O)n([C@H]2C[C@H](O)C(CO)O2)cc1I` (some centres undefined), the viability in experiment [1] came to 77%. Besides, the fold increase in experiment [2] was determined as 1.43.
For `Cc1c(/C=C(/C#N)c2ccc([N+](=O)[O-])cc2)cc(C#N)n1C`, in experiment [1], the min viability is 69.7% [measured here: HeLa viability, alamarBlue, dose 10, library dosed in µg/mL] and the viability was 83% [measured here: primary viability 10 ug/mL, library dosed in µg/mL]. The fold increase in experiment [2] was 2.15 [measured here: primary screen 10 ug/mL, library dosed in µg/mL].
As to `Cc1ccc(/C=C/C2=Cc3c(sc(NC(=O)CN4CCOCC4)c3C#N)C(C)(C)C2)o1`, in experiment [1], the min viability was 70.1% [measured here: HeLa viability, alamarBlue, dose 20, library dosed in µg/mL] and the viability is 66% [measured here: primary viability 10 ug/mL, library dosed in µg/mL]. Moreover, the fold increase in experiment [2] is 1.42 [measured here: primary screen 10 ug/mL, library dosed in µg/mL].
Turning to `CC1(c2cc(F)ccc2F)NC(=O)N(CC(=O)c2ccc3c(c2)OCCO3)C1=O` (centres undefined), in experiment [1], the min viability is 95.2% [measured here: HeLa viability, alamarBlue, dose 0.31, library dosed in µg/mL] and the viability was 69% [measured here: primary viability 10 ug/mL, library dosed in µg/mL]. Besides, in experiment [2], the fold increase is 1.27 [measured here: primary screen 10 ug/mL, library dosed in µg/mL].
Take `C=C[C@H]1CN2CC[C@H]1C[C@H]2[C@H](O)c1ccnc2ccc(OC)cc12`: in experiment [1], the min viability is 37.1% [measured here: HeLa viability, alamarBlue, dose 6.25, library dosed in µM]; the viability was 102% and 84%. For the same molecule, in experiment [2], the fold increase was 1.23 and 1.94.
As to `COc1cc2c(cc1/C=C(/C#N)c1nc(C)cs1)OC(C)C2` (centres undefined), in experiment [1], the min viability is 80.9% [measured here: HeLa viability, alamarBlue, dose 0.31, library dosed in µg/mL] and the viability is 87% [measured here: primary viability 10 ug/mL, library dosed in µg/mL]. Further, the fold increase in experiment [2] was 2.44 [measured here: primary screen 10 ug/mL, library dosed in µg/mL].
With `CC[C@H](C)C(=O)O[C@H]1C[C@@H](C)C=C2C=C[C@H](C)[C@H](CC[C@@H]3C[C@@H](O)CC(=O)O3)[C@H]21`, in experiment [1], the min viability was 84.1% [measured here: HeLa viability, alamarBlue, dose 12.5, library dosed in µM]; the viability is 82% and 101%. The fold increase in experiment [2] is 1.51 and 1.37.
Consider `Cn1c(-c2c(N)n(Cc3cccnc3)c3nc(C#N)c(C#N)nc23)nc2ccccc21`, for which, in experiment [1], the min viability is 63.7% [measured here: HeLa viability, alamarBlue, dose 10, library dosed in µg/mL] and the viability was 92% [measured here: primary viability 10 ug/mL, library dosed in µg/mL]. Besides, the fold increase in experiment [2] was 4.43 [measured here: primary screen 10 ug/mL, library dosed in µg/mL].
For the molecule `N#Cc1ccc(CN2CCc3cc([N+](=O)[O-])ccc32)c(F)c1`, in experiment [1], the min viability was 87.6% [measured here: HeLa viability, alamarBlue, dose 0.039, library dosed in µg/mL] and the viability was 86% [measured here: primary viability 10 ug/mL, library dosed in µg/mL]. Further, the fold increase in experiment [2] is 1.53 [measured here: primary screen 10 ug/mL, library dosed in µg/mL].
Turning to `CCN(CC)C(=S)SSC(=S)N(CC)CC`, in experiment [1], the min viability was found to be 69.2%; the viability is 107% and 85% and 82%. Besides, the fold increase in experiment [2] is 1.42 and 1.6 and 2.01.
As to `N#C/C(=C/c1cccs1)c1nc(-c2cccs2)no1`, in experiment [1], the min viability was 79% [measured here: HeLa viability, alamarBlue, dose 0.039, library dosed in µg/mL] and the viability was 95% [measured here: primary viability 10 ug/mL, library dosed in µg/mL]. Also, the fold increase in experiment [2] was 1.55 [measured here: primary screen 10 ug/mL, library dosed in µg/mL].
As for `CCN(CC)CCOc1ccc2c(c1)C(=O)c1cc(OCCN(CC)CC)ccc1-2`, in experiment [1], the min viability was 52.3% and the viability turned out to be 73%. Besides, the fold increase in experiment [2] came out at 3.61.
With `O=C(OCc1sc2ccccc2c1Cl)C1=NN(C2CCS(=O)(=O)C2)C(=O)CC1` (centres undefined), in experiment [1], the min viability is 65.6% [measured here: HeLa viability, alamarBlue, dose 0.16, library dosed in µg/mL] and the viability was 96% [measured here: primary viability 10 ug/mL, library dosed in µg/mL]. Besides, in experiment [2], the fold increase was 1.7 [measured here: primary screen 10 ug/mL, library dosed in µg/mL].
Consider `COc1cc([C@@H]2c3cc4c(cc3C(O[C@@H]3O[C@@H]5CO[C@@H](c6cccs6)OC5[C@H](O)[C@H]3O)C3COC(=O)[C@@H]32)OCO4)cc(OC)c1O` (some centres undefined), for which the viability in experiment [1] came to 79%. In experiment [2], the fold increase was 1.43.
With `CC(=O)S[C@@H]1CC2=CC(=O)CC[C@]2(C)[C@H]2CC[C@@]3(C)[C@@H](CC[C@@]34CCC(=O)O4)C12` (some centres undefined), in experiment [1], the min viability is 61.5% [measured here: HeLa viability, alamarBlue, dose 0.09, library dosed in µM] and the viability came out at 99%. In addition, in experiment [2], the fold increase worked out at 1.84.
For the molecule `C=C[C@H]1CN2CC[C@H]1C[C@@H]2[C@H](O)c1ccnc2ccc(OC)cc12`, the viability in experiment [1] worked out at 93%. The fold increase in experiment [2] is 1.06.
As to `COC(=O)[C@H]1[C@H]2C[C@@H]3c4[nH]c5cc(OC)ccc5c4CCN3C[C@H]2C[C@@H](OC(=O)c2cc(OC)c(OC)c(OC)c2)[C@@H]1OC`, in experiment [1], the min viability was 73.3% [measured here: HeLa viability, alamarBlue, dose 12.5, library dosed in µM]; the viability is 85% and 80%. For the same molecule, the fold increase in experiment [2] is 2.42 and 1.11.
